Results taken from PubChem BioAssay AID624417 (National Center for Advancing Translational Sciences (NCATS), 2012).
The campaign covered roughly 410,000 compounds. About 6,400 (1.6%) were called active. Inconclusive means that the source gave no clear call. Such entries were picked first, then a sample of the others. Calls come from the whole dose curve; as a rule, active = well fitted inhibition curve with a large enough effect; inconclusive = small, poorly fitted or top-dose-only effect; inactive = no such curve, though single readings can be large or run the other way. Potencies of inconclusive entries are left out as doubtful fits.

Target: Glucagon-like peptide 1 receptor (Homo sapiens) (UniProt P43220)
Chain of UniProt P43220 (P43220 whole entry, looked up): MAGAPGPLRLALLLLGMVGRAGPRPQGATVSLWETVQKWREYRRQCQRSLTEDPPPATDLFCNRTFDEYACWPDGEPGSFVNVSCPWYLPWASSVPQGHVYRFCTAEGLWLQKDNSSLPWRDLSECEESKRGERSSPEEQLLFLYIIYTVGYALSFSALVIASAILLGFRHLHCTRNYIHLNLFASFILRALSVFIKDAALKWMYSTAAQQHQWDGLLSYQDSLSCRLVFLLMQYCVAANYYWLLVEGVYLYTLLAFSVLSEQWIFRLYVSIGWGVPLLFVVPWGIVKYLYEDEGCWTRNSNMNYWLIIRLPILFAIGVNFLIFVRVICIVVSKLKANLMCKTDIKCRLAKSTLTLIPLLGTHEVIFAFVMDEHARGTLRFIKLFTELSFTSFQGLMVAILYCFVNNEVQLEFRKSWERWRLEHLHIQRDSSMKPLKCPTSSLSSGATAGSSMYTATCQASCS
Experiment: qHTS of GLP-1 Receptor Inverse Agonists (Inhibition Mode); note: nearly all actives have a fitted effect of over 55% in size
Details: HEK293 GLP-1R CRE-luciferase, luminescence, 24 h, GLP-1R form is constitutively active; activity change, negative = inhibition: at 38.3 µM (top of the series) unless noted
Method in brief: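 HEK293 cells stably co-expressing a cAMP-responsive luciferase reporter and constitutively active GLP-1R were seeded, incubated 12 h, then exposed to compounds for 24 h at 37 C. Luminescence was read 12 min after detection reagent; inverse agonists lower signal.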
% is set by controls: 0 for no effect and ±100 for the full control effect; potency is the fitted concentration of half-maximal effect; tags give direction and shape of the fitted curve.

SMILES	Potency	activity change, negative = inhibition
CC(O)[C@H]1CNCCN1CC1(c2ccccc2)CC1 (some centres undefined)	inactive	–
O=C(Cc1ccc(NC(=O)N2CCCCc3ccccc32)cc1)NCc1ccccc1	inconclusive [inhibitor, full curve]	–
O=C(c1ccc(C(F)(F)F)cc1)C1CCCN(C(=O)CCc2ccncc2)C1 (centres undefined)	inconclusive [inhibitor, full curve, poor fit]	–
CCOc1nc(NC(=O)NS(=O)(=O)Oc2ccccc2)nc(-c2ccccc2)n1	inactive	–
CCOc1ccc(CN2CCN(Cc3cccc4c3OCO4)CC2CCO)cc1 (centres undefined)	inconclusive [inhibitor, single point]	–
CCOC(=O)C(Cc1c[nH]c2ccccc12)NC(=O)COc1ccc(Cl)c(C)c1 (centres undefined)	inconclusive [inhibitor, single point]	–
COc1cccc(CNC(=O)C2CCC(CNS(=O)(=O)c3ccc(Br)s3)CC2)c1 (centres undefined)	inactive	–
CC(Oc1ccc(Cl)cc1Cl)c1nc(-c2ccc(NC(=O)c3cccnc3)cc2)no1 (centres undefined)	inconclusive [inhibitor, full curve, poor fit]	–
O=C(CSc1nnc(-c2ccco2)n1-c1ccccc1)NCCc1ccccc1	inconclusive [inhibitor, partial curve, poor fit]	–
S=C(NCCc1ccccc1)NCc1ccccc1Cl	inconclusive [inhibitor, single point]	–
Cc1c(Cl)cccc1NC(=S)NC(=O)c1cncc(Br)c1	inconclusive [inhibitor, single point]	–
COCCn1c(=S)[nH]c2cc(C(=O)N3CCCC(C)C3)ccc2c1=O (centres undefined)	inactive	–
COc1cccc(C(O)c2nc(-c3ccccc3)cs2)c1 (centres undefined)	inconclusive [inhibitor, single point]	–
O=C(Nc1ccc(N2CCCCC2)cc1)c1cncc(Br)c1	inconclusive [inhibitor, partial curve, poor fit]	–
COc1cc(S(=O)(=O)Nc2cc(C)cc(C)c2)ccc1F	inconclusive [inhibitor, partial curve, poor fit]	–
COc1ccc(-c2noc(CSc3nnc(-c4ccncc4)n3-c3ccc(C)cc3)n2)cc1	inconclusive [inhibitor, partial curve]	–
O=C(COC(=O)c1ccc(Cl)cc1Cl)Nc1cccc(S(=O)(=O)NC2=NCCC2)c1	inconclusive [inhibitor, single point]	–
CN(C)CCNc1ncnc2c1sc1nc(N3CCOCC3)c3c(c12)CC(C)(C)SC3	inconclusive [inhibitor, partial curve, poor fit]	–
Cc1ccn2c(Cc3ccccc3)c(-c3ccc(Br)cc3)nc2c1	inconclusive [inhibitor, partial curve, poor fit]	–
CCC1([N+](=O)[O-])COC(c2ccc(C)cc2)OC1 (centres undefined)	inconclusive [inhibitor, single point]	–
O=C(CCN1CCN(c2ccccc2F)CC1)Nc1ccc(F)cc1	inactive	–
Cc1ccccc1OCCCCCNCCO	inconclusive [inhibitor, single point]	–

SMILES	Potency	activity change, negative = inhibition
CC(=O)c1ccc(OCC(O)CN2CCN(S(=O)(=O)c3c(C)cc(C)cc3C)CC2)cc1 (centres undefined)	–	inconclusive: -69.3% [inhibitor]
Cc1ccc(CSc2nc(-c3ccccc3)c(C#N)c(=O)[nH]2)cc1	inconclusive [inhibitor, single point]	–
CCCNc1nc(Nc2ccc(C)c(Cl)c2)c2cnn(C)c2n1	inconclusive [inhibitor, single point]	–
OC(CN1CCN(c2ccccc2)CC1)Cn1c2ccccc2c2ccccc21 (centres undefined)	inconclusive [inhibitor, partial curve, poor fit]	–
CCOc1ccc(OCC(=O)Nc2nnc3n2CCS3)cc1	inactive	–
Cc1ccc(NC(=S)Nn2cnnc2)cc1	inactive	–
COc1cccc(NC(=O)c2cnn(-c3ccccc3)c2-n2cccc2)c1	inconclusive [inhibitor, single point]	–
Cc1ccc(S(=O)(=O)N2CCN(c3ccc(C(F)(F)F)cc3[N+](=O)[O-])CC2)cc1	inconclusive [inhibitor, single point]	–
O=c1onc(-c2ccc(Cl)cc2)n1Cc1ccc(F)cc1	inconclusive [inhibitor, single point]	–
CCOC(=O)c1sc2ncn(CC(=O)Nc3ccc(C)cc3Br)c(=O)c2c1C	inactive	–
COC(=O)C1(C(=O)OC)C[C@H](/C=C/c2ccccc2)N(Cc2ccccc2OC)[C@@H]1c1ccccc1	inconclusive [inhibitor, partial curve, poor fit]	–
Cc1noc(C)c1S(=O)(=O)N1CCC(C(=O)N2CCN(c3ccc(Cl)cc3)CC2)CC1	inconclusive [inhibitor, single point]	–
Cc1ccc(C(=O)Nc2nnc([C@H]3C[C@H](O)[C@@H](CO)O3)s2)cc1	inactive	–
CCOc1cc(C(=O)N2CCc3c([nH]c4ccccc34)C2c2ccccc2)cc(OCC)c1OCC (centres undefined)	inconclusive [inhibitor, partial curve, poor fit]	–
CCNCCNc1ccc(Cl)cc1[N+](=O)[O-]	inconclusive [inhibitor, partial curve, poor fit]	–
Cc1ccc(N(CC(=O)Nc2ccc(C)c(F)c2)S(=O)(=O)c2c(C)n[nH]c2C)cc1	inconclusive [inhibitor, single point]	–
CCOC(=O)C1CCN(C(=O)c2cccc(S(=O)(=O)N3CCc4ccccc43)c2)CC1	inconclusive [inhibitor, single point]	–
Cc1cccc(C)c1OCCOC(=O)c1cccc(S(=O)(=O)N2CCOCC2)c1	inconclusive [inhibitor, single point]	–
O=C1c2ccccc2[C@@H]2Cc3csc[n+]3[C@H]12	inactive	–
CC(C)c1ccc(NC(=O)c2cc(S(=O)(=O)NCc3ccccc3Cl)ccc2F)cc1	active: 6.31 µM	–
O=C(Cc1ccccc1)Nc1ccc(N2CCCCC2)cc1	inconclusive [inhibitor, partial curve, poor fit]	–
CN(C)CCCN1C(=O)c2cccc3c(Br)ccc(c23)C1=O	inconclusive [inhibitor, single point]	–

SMILES	Potency	activity change, negative = inhibition
Cc1ccc([C@H]2C[C@@H](n3cc(COC(=O)c4ccccc4)nn3)[C@H](O)CN2C(=O)C2CCCCC2)cc1	inconclusive [inhibitor, single point]	–
COC(=O)c1c(NC(=O)CSc2nnnn2-c2ccccc2)sc2c1CCC(C)C2 (centres undefined)	inactive	–
NC(=O)c1ccsc1NC(=O)C1CCCN1S(=O)(=O)c1ccc(Cl)cc1 (centres undefined)	inactive	–
Cc1cccc(C)c1NC(=O)/C(=C/c1ccco1)c1ccccc1	inconclusive [inhibitor, single point]	–
O=C(C1CCCCC1)N1CCN(S(=O)(=O)c2ccc(Cl)cc2)CC1	inconclusive [inhibitor, single point]	–
Cc1nn(-c2ccccc2)c(Cl)c1C(=O)N(C)CC(=O)Nc1cccc(F)c1	inconclusive [inhibitor, single point]	–
Cc1cc2ccccc2n1CCNC(=O)c1cccc(Cl)c1	inconclusive [inhibitor, single point]	–
O=C(c1ccco1)N1N=C(C2CCCCC2)CC1(O)C(F)(F)F (centres undefined)	inconclusive [inhibitor, single point]	–
CCOc1ccc(NC(=O)CSC2=Nc3ccccc3C3=NC(CC(=O)NCc4ccco4)C(=O)N23)cc1 (centres undefined)	inconclusive [inhibitor, single point]	–
O=C(c1ccc(Cl)c(Cl)c1)N1CCC(=O)N([C@H](COCc2cccc(C(F)(F)F)c2)Cc2ccccc2)CC1	inconclusive [inhibitor, single point]	–
COc1ccc(CNC(=O)CC(c2ccc(OC)c(OC)c2)N2Cc3ccccc3C2=O)cc1 (centres undefined)	inactive	–
CCOc1ccccc1NC(=O)C(c1ccccc1)N1CCN(C(=O)c2ccco2)CC1 (centres undefined)	inconclusive [inhibitor, partial curve]	–
CCC1CCC(NC(=O)Nc2cccc(OC)c2)CC1 (centres undefined)	inconclusive [inhibitor, single point]	–
COc1ccc(OCC(=O)Nc2ccccc2N2CCN(C)CC2)cc1	inconclusive [inhibitor, single point]	–
CCN(C(=O)CCN1C(=O)/C(=C/c2ccccc2)SC1=S)C1CCS(=O)(=O)C1 (centres undefined)	inconclusive [inhibitor, partial curve, poor fit]	–
C/C(=N\N1CCN(C2c3ccccc3-c3ccccc32)CC1)c1cccnc1	inconclusive [inhibitor, single point]	–
CCOc1ccc(NC(=O)CSc2cn(CC(=O)N3CCCCCC3)c3ccccc23)cc1	inconclusive [inhibitor, partial curve, poor fit]	–
Cc1ncc(C)c2c([N+](=O)[O-])cccc12	inactive	–
CCOC(=O)[C@]12CCCC=C1N(Cc1ccco1)C(=O)[C@H](CC(=O)NCC13CC4CC(CC(C4)C1)C3)C2	inconclusive [inhibitor, single point]	–
COC(=O)C1=C(C)N(Cc2ccco2)C(=O)/C1=C\c1ccc([N+](=O)[O-])cc1	inactive	–
